From patent publication US20210363257A1 (Pieris, published 2021)

Tests used:
[1] = target: T1, huCD137-His (human CD137 with a C-terminal polyhistidine tag) (human, UniProt Q07011 24-186); assay: ELISA, huCD137-His coated, detection anti-NGAL-HRP
T1 construct: Bought; also called huCD137-His-Bio
Method: (§1) Recombinant huPD-L1-His or cyPD-L1-His (human or cynomolgus PD-L1 with a C-terminal polyhistidine tag, R&D Systems or Sino Biologics) at the concentration of 1 μg/mL in PBS was coated overnight on microtiter plates at 4° C. After washing with PBS-0.05% T (PBS supplemented with 0.05% (v/v) Tween 20), the plates were blocked with 2% BSA (w/v) in PBS-0.1% T (PBS supplemented with 0.1% (v/v) Tween 20) for 1 h at room temperature. […] Bound molecules under study were detected by incubation with 1:5000 diluted anti-human IgG Fc-HRP (Jackson Laboratory) in PBS-0.1% T-2% BSA. After an additional wash step, fluorogenic HRP substrate (QuantaBlu, Thermo) was added to each well and the fluorescence intensity was detected using a fluorescence microplate reader.
(§2) The same ELISA setup was also employed to determine the binding potency of fusion proteins to CD137, where huCD137-His (human CD137 with C-terminal polyhistidine tag, R&D Systems) or cyCD137-Fc (cynomolgus CD137 C-terminally fused to Fc) was instead coated on a microtiter plate. The testing agents were similarly titrated and bound agents were detected via anti-NGAL-HRP.

[2] = target: cyCD137-Fc (cynomolgus CD137 C-terminally fused to Fc) (cynomolgus); assay: ELISA, cyCD137-Fc coated, detection anti-NGAL-HRP
Method: as §1, §2

[3] = target: T2, human CD137 expressed on cells (human, UniProt Q07011 24-255); assay: flow cytometry, Flp-In-CHO::huCD137 cells
T2 construct: whole, on cells; also called Flp-In-CHO::huCD137; NFκB-luc2/CD137 Jurkat cells
Method: (§3) The geometric means of the fluorescence intensity were used to calculate EC₅₀ values using nonlinear regression (shared bottom, SLOPE=1).
(§4) 5×10⁴ cells per well were incubated for 1 h in ice-cold PBS containing 5% fetal calf serum (PBS-FCS). A dilution series of the fusion proteins and control antibodies were added to the cells and incubated for 1 h on ice. Cells were washed twice with PBS and then incubated with a goat anti-hIgG Alexa647-labeled antibody for 30 min on ice. Cells were subsequently washed and analyzed using iQue Flow cytometer (Intellicyte Screener). Mean geometric fluorescent signals were plotted and fitted with Graphpad software using nonlinear regression (shared bottom, SLOPE=1).

[4] = target: T1, huCD137-His (human CD137 with a …); assay: SPR (Biacore), binder captured by anti-human IgG Fc, huCD137-His in solution, 25 C, 1:1 model
Method: The binding kinetics and affinity of exemplary fusion proteins to huPD-L1-His or huCD137-His (human PD-L1 or human CD137 with a C-terminal polyhistidine tag, R&D Systems) were determined by surface plasmon resonance (SPR) using a Biacore 8K or a Biacore T200 (GE Healthcare).
The anti-human IgG Fc antibody (GE Healthcare) was immobilized on a CM5 sensor chip using standard amine chemistry: the carboxyl groups on the chip were activated using 1-ethyl-3-(3-dimethylaminopropyl)-carbodiimide (EDC) and N-hydroxysuccinimide (NHS). Subsequently, anti-human IgG Fc antibody solution (GE Healthcare) at a concentration of 25 μg/mL in 10 mM sodium acetate (pH 5.0) was applied at a flow rate of 5 μL/min until an immobilization level of 6000-10000 resonance units (RU) was achieved. Residual non-reacted NHS-esters were blocked by passing a solution of 1M ethanolamine across the surface. The reference channel was treated in an analogous manner. […] After each capture step, the needle was washed.
Double referencing was used and the 1:1 binding model was used to fit the raw data.

[5] = target: T3, cynomolgus CD137 expressed on cells (cynomolgus, UniProt A9YYE7 24-254); assay: flow cytometry, Flp-In-CHO::cynoCD137 cells
T3 construct: also called Flp-In-CHO::cynoCD137
T3 sequence (A9YYE7 entry or part of it limits assumed): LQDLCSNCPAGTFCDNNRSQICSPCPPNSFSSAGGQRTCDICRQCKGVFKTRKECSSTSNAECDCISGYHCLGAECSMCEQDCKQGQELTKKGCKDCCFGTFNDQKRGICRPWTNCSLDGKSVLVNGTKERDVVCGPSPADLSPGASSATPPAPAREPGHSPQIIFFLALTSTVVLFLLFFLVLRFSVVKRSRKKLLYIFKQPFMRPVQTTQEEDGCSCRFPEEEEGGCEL
Method: as §3, §4

B1: CD137-specific lipocalin mutein-Fc fusion SEQ ID NO: 89 (Fc fusion)
chain: [letters of human IgG4 Fc with S228P F234A L235A (EU numbers) left out]GGGGSGGGGSGGGGSQDSTSDLIPAPPLSKVPLQQNFQDNQFHGKWYVVGQAGNIRLREDKDPIKMMATIYELKEDKSYDVTMVKFDDKKCMYDIWTFVPGSQPGEFTLGKIKSFPGHTSSLVRVVSTNYNQHAMVFFKFVFQNREEFYITLYGRTKELTSELKENFIRFSKSLGLPENHIVFPVPIDQCIDG
- EC50 [1]: 0.29 nM
- EC50 [2]: 0.82 nM
- EC50 [3]: 5.74 nM
- Kd [4]: 3.6 nM
- koff [4]: 0.000132 s⁻¹
- kon [4]: 36600 M⁻¹ s⁻¹
- EC50 [5]: 26.7 nM

B2: CD137-specific lipocalin mutein-Fc fusion SEQ ID NO: 88 (Fc fusion)
chain: [letters of human IgG4 Fc with S228P F234A L235A (EU numbers) left out]GGGGSGGGGSGGGGSQDSTSDLIPAPPLSKVPLQQNFQDNQFHGKWYVVGQAGNIRLREDKDPIKMMATIYELKEDKSYDVTMVKFDDKKCMYDIWTFVPGSQPGEFTLGKIKSFPGHTSSLVRVVSTNYNQHAMVFFKFVFQNREEFYITLYGRTKELTSELKENFIRFSKSLGLPENHIVFPVPIDQCIDGGGGGSGGGGSGGGGSQDSTSDLIPAPPLSKVPLQQNFQDNQFHGKWYVVGQAGNIRLREDKDPIKMMATIYELKEDKSYDVTMVKFDDKKCMYDIWTFVPGSQPGEFTLGKIKSFPGHTSSLVRVVSTNYNQHAMVFFKFVFQNREEFYITLYGRTKELTSELKENFIRFSKSLGLPENHIVFPVPIDQCIDG
- EC50 [1]: 0.15 nM
- EC50 [2]: 0.12 nM
- EC50 [3]: 4.33 nM
- Kd [4]: 4.16 nM
- koff [4]: 0.000163 s⁻¹
- kon [4]: 39400 M⁻¹ s⁻¹
- EC50 [5]: 3.81 nM
